The list shows a part of the results.
What was measured:
HSkMC = human skeletal muscle cells; assay: cytotoxicity call (relative viability < 0.9); conditions: 10 µM
HepG2 = assay: cytotoxicity call (relative viability < 0.9); conditions: 10 µM
S. aureus RN4220 = assay: growth inhibition call (relative growth <= 0.2); conditions: 50 µM

Row | SMILES | cytotoxicity call (HSkMC) | cytotoxicity call (HepG2) | growth inhibition call (S. aureus RN4220)
1 | NC(=O)N[C@H]1NC(=O)NC1=O | inactive | inactive | inactive
2 | Cc1ccc(S[C@]2(C(=O)NCC(F)(F)F)CC(=O)N(Cc3ccccc3C(F)(F)F)[C@@H]2c2ccc(CO)cc2I)cc1 | inactive | inactive | inactive
3 | C[C@H]1CN([C@@H](C)CO)C(=O)c2cccc(NC(=O)C3CCOCC3)c2O[C@@H]1CN(C)Cc1ccc2c(c1)OCO2 | inactive | inactive | inactive
4 | COc1ccc2c3c(n(c2c1)C)[C@@H](CO)N(C[C@]13CCN(CC1)C(=O)Nc1cccc(c1)F)C(=O)C1CCCCC1 | inactive | inactive | inactive
5 | C[C@@H]1CCCCO[C@@H](CN(C)S(=O)(=O)c2ccccc2)[C@@H](C)CN([C@@H](C)CO)C(=O)c2cc(NC(=O)c3ccccc3)ccc2O1 | inactive | inactive | inactive
6 | COc1ccc(S(=O)(=O)N(C)C[C@@H]2Oc3cc(C4=CCCC4)ccc3S(=O)(=O)N([C@H](C)CO)C[C@H]2C)cc1 | inactive | inactive | inactive
7 | CC(C)NC(=O)Nc1ccc2c(c1)CC(=O)N([C@H](C)CO)C[C@H](C)[C@@H](CN(C)Cc1ccc(-c3ccccc3)cc1)O2 | inactive | inactive | inactive
8 | CCN(CC)S(=O)(=O)c1nnc[nH]1 | inactive | inactive | inactive
9 | CC(C)NC(=O)Nc1ccc2c(c1)C(=O)N([C@H](C)CO)C[C@@H](C)[C@@H](CN(C)Cc1ccc(Cl)c(Cl)c1)OCCCC[C@H](C)O2 | inactive | inactive | inactive
10 | COCCCNC(=O)[C@@]1(C)c2ccccc2C(=O)N(Cc2cc(F)cc(C(F)(F)F)c2)[C@H]1c1ccc(CO)cc1 | inactive | inactive | inactive
11 | Cc1noc(C)c1S(=O)(=O)Nc1ccc2c(c1)C(=O)N([C@H](C)CO)C[C@H](C)[C@H](CN(C)C(=O)Nc1ccc(F)cc1)OCCCC[C@H](C)O2 | inactive | inactive | inactive
12 | C[C@@H]1CN([C@@H](C)CO)C(=O)c2cc(NC(=O)Nc3ccc4c(c3)OCO4)ccc2O[C@@H](C)CCCCO[C@H]1CN(C)Cc1ccccc1 | inactive | inactive | inactive
13 | Oc1c(Cl)cc(Cl)c2cccnc12 | inactive | active | inactive
14 | O=C(C1=C[C@@H](c2ccsc2)C[C@@H](OCCCCO)O1)N1CCN(Cc2ccc3c(c2)OCO3)CC1 | inactive | inactive | inactive
15 | N[C@@H](CC(=O)O)c1cccc([N+](=O)[O-])c1 | inactive | inactive | inactive
16 | Cc1noc(C)c1S(=O)(=O)Nc1ccc2c(c1)CC(=O)N([C@@H](C)CO)C[C@H](C)[C@H](CN(C)C(=O)Nc1ccc3c(c1)OCO3)O2 | inactive | inactive | inactive
17 | C[C@@H]1CCCCO[C@H](CN(C)S(=O)(=O)c2ccc(Cl)cc2)[C@@H](C)CN([C@@H](C)CO)C(=O)c2cc(NC(=O)Nc3ccc(F)cc3)ccc2O1 | inactive | inactive | inactive
18 | CC(=O)[C@@]12C=CCC[C@@H]1C[C@@H](C(=O)Nc1c(C)cccc1Cl)N2C(=O)c1nc(C)oc1C(F)(F)F | inactive | inactive | inactive
19 | CSCC[C@@H](N)C(=O)O | inactive | inactive | inactive
20 | C[C@H](CO)N1C[C@H](C)[C@@H](CN(C)C(=O)Cc2cccnc2)Oc2cc(-c3cncnc3)ccc2S1(=O)=O | inactive | inactive | inactive
21 | C[C@H](CO)N1C[C@H](C)[C@H](CN(C)Cc2cccc(F)c2)Oc2cc(C#CC3CC3)ccc2S1(=O)=O | inactive | inactive | inactive
22 | C[C@H]1CN([C@@H](C)CO)S(=O)(=O)c2ccc(-c3cncnc3)cc2O[C@H]1CN(C)C(=O)Cc1ccncc1 | inactive | inactive | inactive
23 | C[C@H]1CCCCO[C@@H](CN(C)CC2CCCCC2)[C@@H](C)CN([C@@H](C)CO)C(=O)c2cc(NC(=O)C3CCCCC3)ccc2O1 | inactive | inactive | inactive
24 | C[C@@H]1CN([C@@H](C)CO)C(=O)c2cc(NC(=O)Nc3cccc4ccccc34)ccc2O[C@@H](C)CCCCO[C@@H]1CN(C)C | inactive | inactive | inactive
25 | CC(C)CC#Cc1ccc2c(c1)O[C@H](CN(C)Cc1cncnc1)[C@@H](C)CN([C@H](C)CO)S2(=O)=O | inactive | inactive | inactive
26 | COc1ccc(NC(=O)Nc2ccc3c(c2)C(=O)N([C@H](C)CO)C[C@H](C)[C@@H](CN(C)C(=O)Nc2ccc(F)cc2)OCCCC[C@@H](C)O3)cc1 | inactive | inactive | inactive

Source: the antibiotic and cytotoxicity screens of Wong et al. (2023)
